# Source: paper PMC8326117 (International Journal of Biological Sciences, 2021)
# No end group written: not given here.
# Tests used:
# [1] = tested on: SARS-CoV-2 nucleocapsid protein (N-protein); format: binding
# SARS-CoV-2 S-protein = format: binding
Substance,binding to N-protein [1],protein-peptide interaction in pull-down (SARS-CoV-2 S-protein)
KKKKKKDKFNHEAEDLFY [AYn1],no affinity to virus nucleocapsid protein (N-protein),
Biotinylated AYn1 (KKKKKKDKFNHEAEDLFY; also: biotinylated),,strong protein-peptide interaction was observed in AYn1-immobilized condition
